# Measurements reported in paper PMC4336329 (PLoS ONE, 2015).
# In all, about 310,000 compounds went through this assay and about 2,200 (0.71%) showed an effect of 50% or more. The effect is printed as a negative number. Some of the results follow.
# Molecular target: human ether-à-go-go-related gene (hERG) potassium channel (human, UniProt Q12809)
# Experiment: primary screen, population patch clamp on CHO cells stably expressing hERG
# Chain of human ether-à-go-go-related gene (hERG) potassium channel (Q12809 whole entry, looked up): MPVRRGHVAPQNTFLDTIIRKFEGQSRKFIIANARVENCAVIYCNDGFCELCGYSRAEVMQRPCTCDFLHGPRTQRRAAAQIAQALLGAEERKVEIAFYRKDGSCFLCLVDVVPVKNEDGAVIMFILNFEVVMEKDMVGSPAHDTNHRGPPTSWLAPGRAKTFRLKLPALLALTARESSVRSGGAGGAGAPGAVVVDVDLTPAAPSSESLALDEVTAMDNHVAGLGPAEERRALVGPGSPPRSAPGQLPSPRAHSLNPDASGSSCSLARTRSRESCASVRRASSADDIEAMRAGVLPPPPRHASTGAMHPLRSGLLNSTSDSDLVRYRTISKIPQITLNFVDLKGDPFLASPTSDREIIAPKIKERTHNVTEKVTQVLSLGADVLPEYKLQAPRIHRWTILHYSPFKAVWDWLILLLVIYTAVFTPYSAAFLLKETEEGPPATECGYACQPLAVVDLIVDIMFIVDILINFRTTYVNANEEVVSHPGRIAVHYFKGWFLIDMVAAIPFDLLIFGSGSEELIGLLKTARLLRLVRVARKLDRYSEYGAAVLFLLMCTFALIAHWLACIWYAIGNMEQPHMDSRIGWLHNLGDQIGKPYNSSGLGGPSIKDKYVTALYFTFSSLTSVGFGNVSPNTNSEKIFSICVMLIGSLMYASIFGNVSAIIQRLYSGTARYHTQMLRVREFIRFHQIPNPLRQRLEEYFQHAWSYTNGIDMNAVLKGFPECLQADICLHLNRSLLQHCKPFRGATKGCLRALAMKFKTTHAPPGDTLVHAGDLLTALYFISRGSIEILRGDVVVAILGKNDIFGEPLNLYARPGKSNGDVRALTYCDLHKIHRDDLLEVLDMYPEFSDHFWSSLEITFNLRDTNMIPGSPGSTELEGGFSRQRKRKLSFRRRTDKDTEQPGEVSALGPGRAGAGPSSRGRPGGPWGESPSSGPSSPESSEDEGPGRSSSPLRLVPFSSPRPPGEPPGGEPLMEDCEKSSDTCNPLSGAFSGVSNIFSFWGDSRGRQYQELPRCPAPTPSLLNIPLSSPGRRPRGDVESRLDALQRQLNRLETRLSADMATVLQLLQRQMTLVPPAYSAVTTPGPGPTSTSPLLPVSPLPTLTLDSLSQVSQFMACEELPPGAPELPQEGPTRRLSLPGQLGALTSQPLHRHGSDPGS
row,SMILES,"hERG current change (%, negative = inhibition) at 1uM [%]"
1,CC(C)(C)NC(=O)N1CCN(c2nc3ccc(Cl)cc3s2)CC1,5.29
2,CN(Cc1ccccc1)C(=O)COC(=O)C1=NNC(=O)CC1,-7.2
3,N#CCCN(Cc1ccncc1)C(=S)NC1CC2C=CC1C2 (stereo not drawn),10.7
4,CCN(CC)S(=O)(=O)c1ccc2c(c1)N(CC(=O)N1CCC(C(N)=O)CC1)C(=O)CO2,15.9
5,CC(=O)CSc1ccc(-c2nc3ccccc3[nH]2)cn1,9.85
6,Nc1nnnn1/N=C/c1ccco1,-3.15
7,CCS(=O)(=O)c1ccc2oc(Nc3cccc(OC)c3)nc2c1,13.6
8,CCOC(=O)CNC(=O)CSc1ncnc2c1cnn2-c1ccc(OC)cc1,4.27
9,CCCC[C@@H]1CN=C(N)N1CC(C)(C)C,13.5
10,CCCC(O)(CCC)C(=O)NN1CCCCC1,-3.3
11,CCCCC(Sc1nc(C)c(Cc2ccccc2)c(=O)[nH]1)C(=O)O (stereo not drawn),19.4
12,COc1cc(/C=C(/C(=O)c2cccs2)c2nc3ccccc3[nH]2)ccc1O,1.74
13,[Cl-].c1ccc(Cc2cc[n+](Cc3ccccc3)cc2)cc1,16.1
14,CC12CCC(C(=O)Nc3ccc(SC(F)F)cc3)(CC1=O)C2(C)C (stereo not drawn),-12.1
15,O=C(O)c1cn(-c2ccc(F)c(F)c2)c2c(F)c(F)c(F)c(F)c2c1=O,-5.15
16,CN1C(=O)C(O)(CC(=O)c2ccc3c(c2)OCO3)c2ccccc21 (stereo not drawn),1.98
17,O=C(CSc1nnnn1-c1ccccc1)NC(=O)Nc1ccc2c(c1)OCCO2,13.5
18,CCOc1ccccc1CN1CCC(N2CCC(C(=O)NC3CC3)CC2)CC1,16.8
19,Cc1cc(NC(=O)c2ccc(Br)c(S(=O)(=O)N3CCCC3)c2)no1,2.53
20,CC1CCC(NC(=O)c2ccc3c(c2)OCO3)CC1 (stereo not drawn),17.2
21,O=C(NCCc1ccc(C(F)(F)F)cc1)C1CCC(=O)N(CCCN2CCCC2=O)C1 (stereo not drawn),17.3
22,Oc1ccc(Cl)cc1C=Nc1ccc2c3c(cccc13)CC2,11.9
23,CCCCCSc1nc2c(cnn2-c2ccccc2)c(=O)[nH]1,9.56

row,SMILES,"hERG current change (%, negative = inhibition) at 1uM [%]"
1,O=C(Cc1c[nH]c2ccccc12)Nc1nc2ccccc2[nH]1,-5.65
2,COc1ccc(CNc2nc3nc(C)cc(C)n3n2)cc1,3.05
3,Cc1ccc(C(=O)Nc2cc3c(cc2Cl)OCCCO3)cc1,13.4
4,COC(=O)c1c(O)ccc(Oc2ccccc2)c1C(=O)OC,9.38
5,CCOCc1c(C(=O)Nc2cc(OCC)c(N3CCOCC3)cc2OCC)oc2ccccc12,9.59
6,COc1ccc2c(c1)C(=NNC(=O)c1ccccn1)c1cc(OC)ccc1-2,11.2
7,CCN(Cc1ccccc1)CC(O)COC(c1ccc(OC)cc1)c1ccc(OC)cc1 (stereo not drawn),-32.9
8,N#CCSc1nc(-c2ccccc2)c2cc(Cl)ccc2n1,8.61
9,CC(C)N(CCc1ccncc1)C(=S)Nc1ccc(F)c(Cl)c1,0.9
10,COCCNCc1ccc(C(C)C)cc1.Cl,9.91
11,CCOc1ccc(C(=O)Nc2cccc3nsnc23)cc1[N+](=O)[O-],-3.24
12,Cc1cc(C(=O)NNC(=S)NCC(C)C)cs1,-2.08
13,C[n+]1cccc(C2C(C#N)=C(N)Oc3c2ccc2ccccc32)c1.[I-] (stereo not drawn),14.4
14,O=C(Nc1cccc(Cl)c1)OCc1cn(-c2ccc(Cl)cc2)nn1,-1.66
15,O=C(O)CCC(=O)Nc1ccccc1C(=O)N1CCN(c2ccc(Cl)cc2)CC1,8.54
16,CCN(CC)CCSc1nc(O)c(-c2ccccc2)c(=O)[nH]1.Cl,5.05
17,COC(=O)c1ccc(CS(=O)(=O)c2ccc(F)cc2)o1,17.6
18,Cc1ccc(NC(=O)N2C3CCCC2CC(NC(=O)C(C)(C)C)C3)cc1 (stereo not drawn),10.8
19,O=C1CNC(=S)N1CCCc1ccccc1,9.3
20,COc1ccc(NC(=O)c2cn(-c3ccccc3)nc2SC)cc1,-1.72
21,O=C(CN1C(=O)CCC1=O)Nc1cccc(NC(=O)CN2C(=O)CCC2=O)c1,13.9
22,CC1(C)S[C@@H]2[C@H](NC(=O)C(NC(=O)N3CCNC3=O)c3ccccc3)C(=O)N2[C@H]1C(=O)O (stereo partly drawn),9.81
23,O=C(CNc1ccc(Cl)cc1)NNC(=S)NCc1ccccc1,5.46

row,SMILES,"hERG current change (%, negative = inhibition) at 1uM [%]"
1,Fc1cc(NC(=S)NCc2ccc(CNC(=S)Nc3ccc(Cl)c(F)c3)cc2)ccc1Cl,11.3
2,CCCC(C)C(=O)Nc1cc([N+](=O)[O-])ccc1F (stereo not drawn),0.831
3,Cc1ccc(C(=O)C2CCNCC2)cc1.Cl,3.9
4,COCCn1c(SCC(=O)c2c(N)n(C3CC3)c(=O)[nH]c2=O)nnc1-c1cccc(C)c1,8.76
5,COc1ccccc1Nc1c([N+](=O)[O-])cc(C)cc1[N+](=O)[O-],13.6
6,CC(=O)OC(C)(C)/C=C/C(=O)C(C)(O)C1[C@H](O)C[C@@]2(C)C3CC=C4C(CC[C@@H](O)C4(C)C)[C@]3(CO)C(=O)C[C@]12C (stereo partly drawn),16.3
7,CNn1cnc2ccsc2c1=O,13.1
8,COCC(=O)N/N=C\c1cccc(OC)c1OC/C=C/c1ccccc1,6.63
9,COc1cc(OC)c(OC)cc1/C=C/C(=O)c1ccc(NS(=O)(=O)c2ccc(C)cc2)cc1,4.96
10,CC(C)CC(NC(=O)C1CCC(C)CC1)C(=O)NCc1ccco1 (stereo not drawn),4.11
11,CC(NCC1COc2ccccc2O1)C(=O)NCc1ccccc1.O=C(O)C(=O)O (stereo not drawn),2.75
12,COc1ccc(C(=O)NC2CC2)cc1OC1CCN(Cc2cc(C)c(C)cc2C)CC1,-74.1
13,CCCCCC(=O)Nc1ccc(N2CCOCC2)c(S(=O)(=O)Nc2ccc(OC)cc2)c1,-15.4
14,COc1ccc(S(=O)(=O)N2CCOCC2)cc1NC(=O)CSc1nnc(N)s1,-6.74
15,NS(=O)(=O)c1ccc(CNC(=O)Cc2ccc(S(=O)(=O)N3CCOCC3)s2)cc1,-3.3
16,CC1CC(C)CN(S(=O)(=O)c2ccc(NC(=O)C3CC(=O)N(Cc4ccccc4)C3)cc2)C1 (stereo not drawn),17.7
17,CC1C(=O)N2CCCc3cc(S(=O)(=O)N4CCCCC4)cc1c32 (stereo not drawn),9.8
18,COc1ccc(NS(=O)(=O)c2cccc(C(=O)N/N=C/c3ccccn3)c2)cc1,11.3
19,Cc1ccc(/C=N/NC(=O)c2ccc(C(=O)N/N=C/c3ccc(C)s3)o2)s1,15.5
20,COc1cc2[nH]c(=O)n(C3CCCCC3)c(=O)c2cc1OC,11
21,CC(=O)N1CC(C)Oc2ccc(S(=O)(=O)Nc3ccc(Cl)cn3)cc21 (stereo not drawn),10.6
22,O=C(NC(N1CCOCC1)C(Cl)(Cl)Cl)c1ccc(Br)cc1 (stereo not drawn),10.9
23,CCc1ccc(NC(=O)Nc2cnccn2)cc1,0.477

row,SMILES,"hERG current change (%, negative = inhibition) at 1uM [%]"
1,CCN(CC)S(=O)(=O)c1csc(C(=O)NCc2ccccc2)c1,5.28
2,CCOC(=O)c1nn(-c2ccc(Cl)cc2)c2nnc(Cc3ccc(C)cc3)c(=O)n12,9.03
3,CCc1nnc(NC(=O)CCC(=O)Nc2ccc(C)cc2)s1,-3.72
4,CCOc1ccc(-c2cc(N3C(=O)Nc4ccccc4N3O)n[nH]2)cc1,17.4
5,O=C(CNCCO)Nc1ccc(F)c(Cl)c1,9.62
6,CCCCOc1ccc(N2C(N)=NC(N)=NC23CCCCC3)cc1.Cl,7.04
7,CCc1nnc(NC(=O)CCC(=O)NCc2ccccc2OC)s1,5.67
8,COc1ccc(NC(=O)CN2CCN(S(=O)(=O)N(C)C)CC2)cc1,13.9
9,CCCCCC1CC(CC#CCN2CCOCC2)C(=O)O1.O=C(O)C(=O)O (stereo not drawn),-5.51
10,COc1ccc(/C=C/C(=O)OCC(=O)Nc2cc(S(=O)(=O)N(C)C)ccc2Cl)cc1,13.3
11,CC(C)C(NS(=O)(=O)c1ccc(Br)s1)C(=O)O (stereo not drawn),8.33
12,Cc1ccc(C)c(NC(=O)CN(C)C(=O)c2ccccc2OCc2ccccc2Cl)c1,12
13,O=C(O)c1cn(-c2ccc(F)cc2)c(=O)c2ccccc12,13
14,COc1ccc(CN(C)CC(=O)NC(C)c2ccccc2)cc1OC (stereo not drawn),4.62
15,Cc1ccn2cc(-c3cccc(NC(=O)c4ccccc4)c3)nc2c1,11.2
16,COc1ccc(/C=N/NC(=O)c2cccc(Br)c2)cc1COc1ccccn1,10.2
17,O=C1C=C(NCCNc2c(F)c(F)c(CO)c(F)c2F)CCC1,7.93
18,COc1ccc(C(=O)Nc2ccc(NC(=O)c3cccs3)cc2)cc1Cl,20.6
19,CC1=C(C(=O)OC(C)C)C(c2ccc(C)o2)C(C(=O)OC(C)C)=C(C)N1,7.14
20,CCOc1ccccc1N(CC(=O)NC1CCCCC1)C(=O)CCCC(=O)Nc1ccccn1,4.02
21,Cc1cc(C(=O)CSc2nnc(-c3ccc(Cl)cc3)n2C)c(C)n1CC1CCCO1 (stereo not drawn),12.2
